We go through 72 sequences from PMC10726135.

The other results are listed elsewhere or left out. At the low end of the ranking, values are background and their order means little. Measured with an extract: partners may take part in the binding.

For this experiment, the target named is T1, HNF4alpha2 (COS-7 nuclear extract) (UniProt P41235).
T1 sequence: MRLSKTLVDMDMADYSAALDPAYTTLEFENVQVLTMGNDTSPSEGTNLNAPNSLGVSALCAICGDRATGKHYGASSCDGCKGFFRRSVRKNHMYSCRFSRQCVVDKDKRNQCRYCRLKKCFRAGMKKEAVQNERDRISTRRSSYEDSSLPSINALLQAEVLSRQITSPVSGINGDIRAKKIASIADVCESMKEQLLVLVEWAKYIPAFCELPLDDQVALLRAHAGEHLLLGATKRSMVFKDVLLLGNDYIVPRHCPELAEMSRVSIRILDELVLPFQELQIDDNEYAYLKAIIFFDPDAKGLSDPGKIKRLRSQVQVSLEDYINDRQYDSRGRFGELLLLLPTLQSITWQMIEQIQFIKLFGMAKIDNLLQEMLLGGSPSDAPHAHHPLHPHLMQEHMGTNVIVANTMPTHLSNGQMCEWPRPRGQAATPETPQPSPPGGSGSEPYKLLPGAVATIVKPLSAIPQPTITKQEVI
Nature of the experiment: protein-binding microarray. Particulars: COS-7 nuclear extract on double-stranded Agilent 4x180k PBM; binding buffer, salt, pH and temperature not given; high values mean tight binding; double strand, one strand shown; sequences stand for … in …GCCTAGGGAGATTAGAGTATCGGTCGA
In the case of AGGACTTTCAACCCTGTGATGACCCCATAC, the binding signal (log2 normalized intensity) was 4.66. As for AATGCAGGGAGCAGAGTCCCAAGCATCTCT, the binding signal (log2 normalized intensity) was -1.21.

In the case of GCCCCATCTATCTAGCCTGAAGTCTTAACC, the binding signal (log2 normalized intensity) came out at 0.868. Turning to GTCGCTTGGAAAAAAAAAAAAAAAAAAGAA, the binding signal (log2 normalized intensity) is -1.07. Take ACCAGGGGCCAGCAAGAGGTGACCCCAGGG: the binding signal (log2 normalized intensity) turned out to be 3.91. CCTTCCAGCAGCAGGCCTGGGGGCAAAGTC: the binding signal (log2 normalized intensity) is 2.74.

With CCCAGGCTTATCTCACTCCAAAGGCTGTTT, the binding signal (log2 normalized intensity) is -0.0712.

As for GTGGGGAAAGAGCCCCTTTGTCCATTATCT, the binding signal (log2 normalized intensity) stood at 0.236. Then AGTGGAAATTGTCCTGCGGTTGGCTCAGGC, with -0.952; and GTTACAGTGGAGAAACCTGACAGACTGGAC, with -0.871. As to AAGATAGAGGCTTTAGCAATAAATTCTGTT, the binding signal (log2 normalized intensity) was -0.871. With CTGTGTTTTGCCCCTGCAGAGTTTTTTACT, the binding signal (log2 normalized intensity) is 0.931.

For the sequence GACAATGGGAGACATTCCTTCAGCGTGAAC, the binding signal (log2 normalized intensity) is -0.649. As for TCCATCTAAATGGCAATGGCTGCAGCTCTT, the figure is -1.08.

On to TCAAAGTGTCAGTCCAGAGTTTGTGGCTCC, for which the binding signal (log2 normalized intensity) came to 1.08. Consider CGGACAGGTAACGTAAACAAGTAAGGAAGA, for which the binding signal (log2 normalized intensity) was -1.19. Regarding TTATATTGAATTCCTGGAAATCCCGAAATA, the binding signal (log2 normalized intensity) was -1.17. With TAGGGTAGGGTTAGGGTTAGGGGTTAGGGG, the binding signal (log2 normalized intensity) is -0.863.

Regarding TAACTTTTGTCTCTGGAGGGATCAGGTCTT, the binding signal (log2 normalized intensity) stood at 1.23. Take AATCCCAGCTCGTGGGCATGCCTCCCAGAG: the binding signal (log2 normalized intensity) is -1.13. CAGCAGTGTACTTGAGCTTCCAGTTAAGCA: the binding signal (log2 normalized intensity) was -0.71. For AATTTCCAACAAATGAAACTAAAGGCACCT, the binding signal (log2 normalized intensity) was -1.1. Consider GGTCACATGCCTAGGTAAGCCCACTAGGGA, for which the binding signal (log2 normalized intensity) is -1.07. For CCTGCCAACTCCACGCCCGCCGCCAGGTGG, the binding signal (log2 normalized intensity) is -1.1. For the sequence GGGGGGTGTTATCTCTGATGCCCTTTGGCC, the binding signal (log2 normalized intensity) was 6.37. AGGCACTTAGCAAATATTTACTGAATGAAT: the binding signal (log2 normalized intensity) is -1.19. As for ACACCTGTTCTAATCAGTAGCTCACAAATA, the figure is -1.11; as for CTTCAAAGGTCGTGTGCTTATCACATCTAT, 1.12.

As to GGTCACATAGCCAGTAAATCATGGATCTGT, the binding signal (log2 normalized intensity) was -0.415.

In the case of AACATCAAATACCTCCAAGAGGTTTTAGGC, the binding signal (log2 normalized intensity) is -0.807.

Regarding TCAGTCTGGTTGAGGCAAGCAAAAGCCAAG, the binding signal (log2 normalized intensity) is -0.985. With CCCCTGCCACTTTCACAAATCATTACTATC, the binding signal (log2 normalized intensity) was -0.447. Consider GTATCCCAGGGACTTACTCAACTAGCTCCA, for which the binding signal (log2 normalized intensity) is -1.12. As to GTGGGAGAGCAAGGGTCAAGGGTCATTTGT, the binding signal (log2 normalized intensity) stood at 6.7. Regarding GAGGAACTCCAGAACCAAAGTCCTAGAGTC, the binding signal (log2 normalized intensity) was -1.02. On to CCTAAGGGCACCCTTCCTGCTTCCAGGCTT, for which the binding signal (log2 normalized intensity) is -1.03. Consider TTGGAGATCTGAACTCAAGCTCTTAAAGAA, for which the binding signal (log2 normalized intensity) was -1.19. For the sequence TCAGAAGCTGGGAGACCACTGGTGTAAGCT, the binding signal (log2 normalized intensity) was -1.13.

In the case of TTGGCTTGGTTCCACATCAGAGAGTTCAAA, the binding signal (log2 normalized intensity) is 0.629. For GGTCACAGAAAGTGACGTGCAGAGGAGCAA, the binding signal (log2 normalized intensity) is -0.773.

For the sequence TTACCTTGACCAAAGTACAGTAATTTCACT, the binding signal (log2 normalized intensity) was determined as 1.02. As for GGGCAGGGACTTTGCCCTTTTTAATGTTTC, the binding signal (log2 normalized intensity) is 5.08. Then GAGCCTTCAAAGGAAAGCAGGTGTTCACCT, with -0.111; and CCATGCAGCCAGGGTCAGGAGAAGCAGAAC, with -1.12.

On to ACCCATCATGAGTAGGTTTACTAAAGGAAG, for which the binding signal (log2 normalized intensity) is -1.1. In the case of TTAAAAAGCTGCAATGGCTTCACAATTCCT, the binding signal (log2 normalized intensity) was -1.13. As to GACAAGCAGTGACCAAGGGTCAGTTTGAAA, the binding signal (log2 normalized intensity) was found to be 2.65. As to TAACAGGATTTTTGCTGAAGACAGGCCAGG, the binding signal (log2 normalized intensity) was -0.417. As for ATTACATATTAACCTTTGCCCCAGCTGTCA, the binding signal (log2 normalized intensity) came to 5.74.

As for CATTCTACCCCTGTGGTTGACCTTTAGTCT, the binding signal (log2 normalized intensity) is 7.73. Regarding CAGCTGAACCATATTCTTTACATTTATTAG, the binding signal (log2 normalized intensity) is 1.06. For the sequence GACCTGTCAAGCAATGATCTTCATGAACTT, the binding signal (log2 normalized intensity) came out at 1.66. On to TTTGCTGTGGTAGGCTGTCCTGTGCAATGG, for which the binding signal (log2 normalized intensity) amounted to 1.76. Consider TTTATCTCCCACATGCTGTCTAGGCCAGAG, for which the binding signal (log2 normalized intensity) was -0.262. As for CACCCCCTATCTTGTGTAATAACGAGACCT, the binding signal (log2 normalized intensity) amounted to 1.5. Then TGGATACCCTTCCCCCCAAGGCTTCCAATC, with 3.99; and TTAACACAAGTTATTACCGTGATGTTCGTT, with 1.53; and GCTGACTAACAAGCTGCCAAACTCTCACTC, with -1.07. With TGCCCTAAGCCACAGACAAATATTTGCTGT, the binding signal (log2 normalized intensity) was -0.493.

With AAACAAATACCATCATCTCAGGGAGTGCAA, the binding signal (log2 normalized intensity) is -1.03.

As to TCTGATTAGGTGGATTCGCCCAGCATAGCA, the binding signal (log2 normalized intensity) was -1.16.

With CCCCAGCCTGTTTCCCTAGCTTATATCCCC, the binding signal (log2 normalized intensity) is 2.7. As to CTGAGCCCTAAGAAATCTCCAAGTCAAACA, the binding signal (log2 normalized intensity) is -1.18. Take ACCCCACACACCAAAACTCTCTCTCTGTGT: the binding signal (log2 normalized intensity) amounted to 0.575. In the case of GAGAGAGCAGGTTGAGTATCTACCACATAC, the binding signal (log2 normalized intensity) was -1.07. On to AGAGACTATGTGGTTTTGTAAATATAGGAT, for which the binding signal (log2 normalized intensity) is 0.295. On to AGGTCTTGGTTGTTCTGTTTAACAGAGATT, for which the binding signal (log2 normalized intensity) stood at 1.65. On to CCAGTTGGTTGCTAAGAGACAGCTCCACAG, for which the binding signal (log2 normalized intensity) is -1.3. Consider TTCTGGCCAGGCAGAGCAGGTTCTCAGGCC, for which the binding signal (log2 normalized intensity) was -1.09.

ATAAAAAGATAATGCTGGACATGACTGCAC: the binding signal (log2 normalized intensity) was -1.17. ATCAGTCCAGGAGGGTCACAAGTCCCTGTC: the binding signal (log2 normalized intensity) was 0.535. As for CACGTGAGAGGGTCGTGATCGATTGAGCAA, the figure is -0.495.
